Results as given in PubChem BioAssay AID686979 (National Center for Advancing Translational Sciences (NCATS), 2013).
In all, about 420,000 compounds went through this assay and about 50,000 (12%) were called active. The shares of active, inactive and inconclusive entries below differ from those in the screen. Calls come from the whole dose curve; as a rule, active = well fitted inhibition curve with a large enough effect; inconclusive = small, poorly fitted or top-dose-only effect; inactive = flat fitted curve, though single readings scatter. No potency is given beside an inconclusive call; the fits are too rough.

Assay: qHTS for Inhibitors of human tyrosyl-DNA phosphodiesterase 1 (TDP1): qHTS in cells in presence of CPT; note: nearly all actives have a fitted effect of over 55% in size
Conditions: chicken DT40 Tdp1-/-;hTDP1 cells + 20 nM CPT, ATP luminescence, 48 h; activity change, negative = growth inhibition: at 46.2 µM (top of the series) unless noted
Method in brief: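 Chicken DT40 Tdp1-/- cells stably complemented with human TDP1 were seeded at 400 cells/well in medium containing 20 nM camptothecin, exposed to pin-transferred compounds, and grown at 37 °C for at least 48 hr. Viability was read as ATP luminescence.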
% is set by controls: 0 for no effect and ±100 for the full control effect; potency is the fitted concentration of half-maximal effect; tags give direction and shape of the fitted curve.

SMILES	activity change, negative = growth inhibition	Potency
Cc1ccc(C)c(NC(=O)C[n+]2ccccc2)c1	inactive: 23.8%	
O=C(Nc1cccc(NC(=O)c2cccnc2)c1)c1ccccc1	inactive: -20.6%	
CCOc1ccc(CNC(=O)c2ccc3nc(C(C)C)oc3c2)cc1	inactive: -3.73%	
N=C1S/C(=C\c2ccc(-c3cccc(Cl)c3)o2)C(=O)N1c1nccs1		active: 3.26 µM
Cc1ccccc1C(=O)NC1CCCCCCC1	inactive: -4.46%	
Cc1ccc(NC(=O)CCc2nc(-c3cccs3)no2)c(Br)c1	inactive: -23.8%	
O=C(Nc1cc(C(F)(F)F)ccc1N1CCOCC1)C1=NN(c2ccccc2)C(=O)CC1		inconclusive [inhibitor, single point]
COc1cc(NC(=O)CN2C(=O)C(c3ccccc3)=NC23CCCCCC3)cc(OC)c1	inactive: -23.3%	
Cc1ccc(Cn2c(CCC(=O)O)nc3ncccc3c2=O)cc1	inactive: 0.694%	
COc1ccc(-c2nc3scc(-c4ccc(OC)c(OC)c4)c3c(=O)o2)cc1		inconclusive [inhibitor, partial curve]
COc1ccc(C(=O)N/N=C/c2ccccc2OC(=O)c2ccccc2)cc1		active: 0.58 µM
Cc1cc(N2CCC(C(=O)N3CCN(c4cccc(C)c4C)CC3)CC2)n2ncnc2n1		inconclusive [inhibitor, single point]
O=C1COc2ccc(C(=O)CSc3nnc(NCc4ccccc4)s3)cc2N1		inconclusive [inhibitor, single point]
O=C(CC(c1ccccc1)c1ccccc1)NCC(O)c1ccc([N+](=O)[O-])cc1 (stereo not drawn)	inconclusive: -31.1% [inhibitor]	
CCOc1ccc(C2Nc3c(C)cccc3-c3cc(C)nn32)cc1 (stereo not drawn)		active: 20.6 µM
O=C(CCS(=O)(=O)c1ccc(F)cc1)Nc1nnc(-c2ccco2)o1		inconclusive [inhibitor, single point]
CC(=O)Nc1ccc(CN2C(=O)C(C)ON=C2c2ccccc2-c2ccco2)cc1 (stereo not drawn)		inconclusive [inhibitor, single point]
CCC(Sc1nc2ccccc2c(=O)n1CC1CCCO1)C(=O)NCc1cccnc1 (stereo not drawn)	inactive: -16.8%	
CC(C)C[C@@H]1COc2cccc(N3CCC[C@H]3CO)c2S(=O)(=O)N1	inactive: -13.3%	
CCOc1ccccc1C(=O)Nc1c(C(=O)Nc2ccc(F)cc2)oc2ccccc12		active: 4.11 µM
COc1ccc(NC(=O)C2(C)Cc3c(-c4cccc(NC(C)=O)c4)ccnc3O2)cc1 (stereo not drawn)		active: 1.64 µM
Cn1c(=O)n(C)c2cc(S(=O)(=O)N3CCOCC3)ccc21	inactive: 5.39%	
COc1ccc(S(=O)(=O)NCC(c2ccco2)S(=O)(=O)c2cccs2)cc1C (stereo not drawn)		inconclusive [inhibitor, full curve, poor fit]
COc1ccc(CCNC(=O)COc2cc(O)c3c(c2)OC(C)(C)CC3=O)cc1		inconclusive [inhibitor, single point]
Cc1ccccc1NC(=S)NNC(=O)c1cccc(Br)c1		inconclusive [inhibitor, single point]
Cc1oc2ncnc(N3CCOCC3)c2c1C(=O)N(Cc1ccccc1)C(C)C	inactive: -0.709%	

SMILES	activity change, negative = growth inhibition	Potency
COc1ccc(/C=N/Nc2cc(C)nc(N3CCOCC3)n2)cc1OC	inactive: 2.94%	
CCOC(=O)c1c(C)[nH]c(C)c1C(=O)COC(=O)c1cccnc1OCC		inconclusive [inhibitor, single point]
COC(=O)c1ccc(/C=C2/SC(=S)N(CCCC(=O)Nc3ccccn3)C2=O)cc1		active: 20.6 µM
Cc1sc2nc(C3CC3)nc(N3CCN(C(=O)c4ccc(F)cc4)CC3)c2c1C		inconclusive [inhibitor, single point]
O=C(CN1CCCC1)N1c2ccccc2Sc2ccc(C(F)(F)F)cc21		inconclusive [inhibitor, single point]
COc1cccc(-c2nnc(-c3ccccc3NC(=O)c3cccc(C(F)(F)F)c3)o2)c1	inactive: -8.43%	
COC(=O)/C(C#N)=C/c1c(Oc2cccc(C)c2C)nc2ccccn2c1=O	inactive: 0.5%	
COc1cccc(O)c1CN1CCC(n2nccc2NC(=O)c2ccc3c(c2)OCO3)CC1	inactive: 0.0105%	
CCc1ccc(NC(=S)Nc2cccc3cnccc23)cc1		inconclusive [inhibitor, single point]
Cc1ccc(CN(C)C(=O)CSc2nnc3n2CCCCC3)c(C)c1	inactive: -18.6%	
CCOc1ccc(NC(=O)c2cnn3c2NC(c2cccc(OC)c2)=CC3c2ccccc2)cc1 (stereo not drawn)		active: 20.6 µM
Cc1ccc(/C=C/C(=O)c2ccccc2O)cc1		inconclusive [inhibitor, single point]
O=c1c(S(=O)(=O)c2ccccc2)cn(Cc2cccc(F)c2)c2cc(N3CCOCC3)c(F)cc12		inconclusive [inhibitor, single point]
CC(C)(C)SCCNS(=O)(=O)c1ccc(F)cc1	inactive: -25%	
Cn1nc(C(F)(F)F)c(/C=N/OC(=O)c2ccccc2Cl)c1SCc1ccccc1Cl		inconclusive [inhibitor, single point]
CC(=O)N(c1ccc(Cl)cc1)C1SC(=O)N(c2ccc(C)cc2)C1=O (stereo not drawn)		inconclusive [inhibitor, single point]
COC(=O)C(/C=N/OCc1ccc([N+](=O)[O-])cc1)NC(=O)c1cccc(Cl)c1 (stereo not drawn)	inactive: -1.02%	
Cn1c(=O)n(C)c2cc(N3CCOCC3)c(NC(=O)c3ccccc3Br)cc21		inconclusive [inhibitor, single point]
O=c1c(-c2ccccc2)[n+]([O-])c2ccccc2n1O	inactive: 3.63%	
CCn1cc(CCCC(=O)NCc2ccccc2OC)c2ccccc21	inactive: -28.9%	
O=C(c1ccccc1)c1nn(-c2cccc(Cl)c2)ccc1=O	inconclusive: -9.56% [inhibitor]	
CCc1ccc(S(=O)(=O)c2cn(C)c3cc(N4CCC(C)CC4)c(F)cc3c2=O)cc1		active: 14.6 µM
Cc1nc2ccc([N+](=O)[O-])cc2c(=O)n1Cc1ccc(Br)cc1		inconclusive [inhibitor, single point]
Cc1ccc(C(=O)Nc2nnc(S(=O)(=O)N3c4ccccc4CC3C)s2)cc1 (stereo not drawn)		inconclusive [inhibitor, single point]
CC(OC(=O)CC1CCCC1)C(=O)Nc1ccc(S(N)(=O)=O)cc1 (stereo not drawn)	inactive: -8.78%	
C=C(C)C(=O)NNc1ccccc1		active: 5.17 µM

SMILES	activity change, negative = growth inhibition	Potency
COc1cccc(CNC(=O)c2cc(S(=O)(=O)N3CCCCC3)cn2C)c1	inactive: -18.8%	
CCn1c(=O)c([N+](=O)[O-])c(NCCN(C)C)c2ccccc21	inactive: 39.3%	
COC(=O)c1ccc(Cl)c(-c2ccc(/C=N/NC(=O)Nc3ccccc3)o2)c1		inconclusive [inhibitor, single point]
CCOc1ccc(-c2nnc(N3CCCCC3)c3ccccc23)cc1		active: 23.1 µM
O=C(c1ccc(OC2CCN(C/C=C/c3ccc(F)cc3)CC2)cc1)N1CCCCC1		inconclusive [inhibitor, partial curve, poor fit]
COc1ccc(C2CC(c3ccccc3)=NN2C(=O)CN2CCN(Cc3ccccc3)CC2)cc1 (stereo not drawn)		inconclusive [inhibitor, single point]
CC(=O)Nc1ccc(NC(=O)CSc2nc3ccccc3nc2N2CCC(C)CC2)cc1		inactive
Nc1ccccc1SCc1csc(-c2ccc(Cl)cc2)n1		inconclusive [inhibitor, single point]
COc1cccc(C2CNC3(CCCC(C)C3)c3[nH]c4ccccc4c32)c1OC (stereo not drawn)		inconclusive [inhibitor, single point]
CCn1c(SCC(=O)Nc2ncc(C(F)(F)F)cc2Cl)nnc1-c1cccc(C)c1	inactive: -1.51%	
CCOc1ccc(OCc2ccc(C(=O)NC(C)(C)C)o2)cc1		active: 7.31 µM
O=C(NCCCN1CCCC1=O)c1cc(-c2cccnc2)nc2ccc(Cl)cc12		inconclusive [inhibitor, partial curve, poor fit]
COc1ccc(NC(=O)/C(=C\c2cccs2)NC(=O)c2ccco2)cc1		inconclusive [inhibitor, single point]
COc1cc(-c2n[nH]c(=S)n2-c2ccc(C)cc2)cc(OC)c1OC		active: 16.4 µM
O=C(Nc1ccc(Cl)cc1)Nc1nnc(CSCc2ccccc2)s1		active: 16.4 µM
CCOC(=O)C1=C(C)NC(C)=C(C(=O)OCC)C1C(=O)OCC(=O)NCc1ccccc1	inactive: -29.8%	
COc1ccc(CCN(C)C(=O)c2cc(S(=O)(=O)NCc3ccccc3)ccc2C)cc1OC		inconclusive [inhibitor, partial curve, poor fit]
Cc1ccccc1Cn1c2ccccc2c2cnn(CC(=O)NCCc3ccccc3)c(=O)c21		active: 16.4 µM
ClC(Cl)c1nnc(-c2ccccc2)c(-c2c[nH]c3ccccc23)n1		active: 3.66 µM
Cc1ccc(NC(=S)NCC2CCCO2)cc1 (stereo not drawn)	inactive: -3.24%	
c1ccc(-c2csc(-c3nc4ccccc4[nH]3)n2)cc1		active: 16.8 µM
Cc1nn(C(=O)CCC(=O)NCCc2ccccc2)c2ccccc12	inactive: 2.12%	
COc1ccc(OC)c(-n2nnnc2SCC(=O)Nc2ccccc2OC)c1		inconclusive [inhibitor, single point]
CCCCN(C(=O)C1CC(=O)N(Cc2ccc(C)cc2)C1)c1c(N)n(CCCC)c(=O)[nH]c1=O (stereo not drawn)	inactive: -4.52%	
Cc1ccc2[nH]c(=O)c(CN(Cc3ccccc3)Cc3nnnn3Cc3ccco3)cc2c1		active: 8.91 µM
Cc1ccc(OCc2n[nH]c(=S)n2Cc2ccccc2)cc1	inactive: -1.87%	
